Data as given in PubChem BioAssay AID2107 (National Center for Advancing Translational Sciences (NCATS), 2009).
About 20 (0.008%) of roughly 240,000 compounds were called active. This list was built around the results that the source calls inconclusive (neither active nor inactive); the mix of calls is not that of the screen. Calls come from the whole dose curve; as a rule, active = well fitted inhibition curve with a large enough effect; inconclusive = small, poorly fitted or top-dose-only effect, or effect the other way; inactive = flat fitted curve, though single readings scatter. Potencies of inconclusive entries are left out as doubtful fits.

biological target: Alpha-galactosidase A (Homo sapiens) (UniProt P06280); assay: qHTS Assay for Inhibitors and Activators of Human alpha-Galactosidase From Spleen Homogenate; settings: 4MU-alpha-Gal fluorescence, 40 min; activity change, negative = inhibition: at 80 µM (top of the series);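 for activity change, negative = inhibition: 0% = enzyme with vehicle and -100% = no enzyme basal signal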
Chain of UniProt P06280 (P06280 whole entry, looked up): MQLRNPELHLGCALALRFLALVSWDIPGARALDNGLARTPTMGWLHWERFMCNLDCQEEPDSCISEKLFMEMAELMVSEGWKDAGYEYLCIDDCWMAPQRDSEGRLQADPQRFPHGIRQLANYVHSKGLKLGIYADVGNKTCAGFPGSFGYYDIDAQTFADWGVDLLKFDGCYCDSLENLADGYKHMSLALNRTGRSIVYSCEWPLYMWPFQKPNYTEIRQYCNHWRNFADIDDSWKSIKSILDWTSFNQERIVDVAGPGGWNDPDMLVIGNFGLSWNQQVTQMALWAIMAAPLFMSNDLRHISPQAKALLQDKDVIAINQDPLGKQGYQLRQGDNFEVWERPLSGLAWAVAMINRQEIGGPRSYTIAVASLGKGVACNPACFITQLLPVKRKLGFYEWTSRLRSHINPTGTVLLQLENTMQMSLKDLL
Summary of the method: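 qHTS titration in buffer at pH 5.0. Alpha-galactosidase activity in spleen homogenate was measured via 4-methylumbelliferone release from 1 mM fluorogenic substrate after 40 min at 37C and a pH 10 stop. AC50 came from Hill fits of control-normalized data.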
Potency is the fitted concentration of half-maximal effect; tags give direction and shape of the fitted curve.

SMILES | Potency | activity change, negative = inhibition
CCCC[C@H]1CCCO[C@@](C(=O)NCc2ccc(C)o2)(C(F)(F)F)C1 | inactive | –
CNC(=O)c1ccc(-c2sc3nc(N4CCOCC4)c4c(c3c2N)CCCC4)o1 | inconclusive [activator, partial curve] | –
COc1ccc(CCNC(=O)CCSc2nc(-c3ccco3)cc(C(F)(F)F)n2)cc1 | inconclusive [activator, partial curve] | –
Cc1nc2ccccc2nc1OCC(=O)N1CCN(c2ccccc2)CC1 | inconclusive [inhibitor, single point] | –
COc1ccc(NC(=O)COC(=O)CCCN2C(=O)c3ccccc3C2=O)cc1Cl | inconclusive [activator, single point] | –
Cc1cccc(NC(=O)CN(C)S(=O)(=O)c2ccccc2)n1 | inconclusive [inhibitor, single point] | –
CCOC(=O)c1sc2nc(C)cc(C)c2c1N | inconclusive [activator, partial curve] | –
Cc1ccc(S(=O)(=O)NCCC(=O)Nc2ccc(C)c(Cl)c2)cc1C | inconclusive [inhibitor, partial curve] | –
Cc1nnsc1C(=O)NNS(=O)(=O)c1cc(C(F)(F)F)cc(C(F)(F)F)c1 | inactive | –
CCOc1cc(C2C3=C(CCCC3=O)N(CCC(=O)O)C3=C2C(=O)CCC3)ccc1OS(=O)(=O)c1ccc(C)cc1 | inconclusive [activator, single point] | –
COC(=O)C1=C(C)Nc2nnnn2C1c1cccs1 (stereo unspecified) | inactive | –
CN(C)c1cc(NC(=O)CN2CCCC2)c2ccccc2n1 | inconclusive [activator, single point] | –
CC(=O)c1ccc(-c2nc3ccccc3n2C)o1 | inconclusive [activator, partial curve] | –
CCN1N=C(c2ccccc2)Cn2c1nc1ccccc12 | inconclusive [activator, partial curve] | –
CC(=O)O[C@@H]1CC[C@@]2(C)[C@H](C1)[C@H](OC(C)=O)C[C@@H]1[C@@H]2C[C@H]2[C@@H]3CN4C[C@H](C)CC[C@H]4[C@H](C)[C@H]3CC[C@@]12O | inactive | –
COC(CNC(=O)c1ccc2c(c1)ncn2-c1ccc(F)c(F)c1)OC | inactive | –
C=CCOc1cccc(C2C(C(=O)c3ccco3)=C(O)C(=O)N2CCN(CC)CC)c1 (stereo unspecified) | inactive | –
COC(=O)C1=CN(Cc2cccs2)C=C(C(=O)OC)C1c1ccc(OC)cc1OC | inconclusive [activator, single point] | –
O=C(NNC1=NCCCCC1)c1ccccc1 | inactive | –
CCN(CC)Cc1c(O)ccc2c(C)c(CC(=O)OC)c(=O)oc12 | inconclusive [activator, partial curve] | –
Cc1ccc(N2CCN(c3ccc(NC(=O)CCC(=O)O)cc3)CC2)cc1 | inconclusive [inhibitor, full curve, poor fit] | –
CCOc1ccc(N(Cc2cc3cc(OC)ccc3[nH]c2=O)C(=O)C2CCCO2)cc1 (stereo unspecified) | inconclusive [activator, single point] | –
CC1(C)Cc2c(C#N)c(NCC3CCCO3)nc(-c3ccco3)c2CO1 (stereo unspecified) | inconclusive [activator, partial curve] | –
COc1ccc(-c2nc3cnc(N4CCNCC4)nc3n(CCc3ccccc3)c2=O)cc1 | inconclusive [activator, single point] | –

SMILES | Potency | activity change, negative = inhibition
CC1CCCC(C)N1C(=O)Cc1ccccc1 (stereo unspecified) | inconclusive [activator, full curve, poor fit] | –
CCOC(=O)N1CCN(C(=O)Nc2sc3nc4n(c(=O)c3c2C)CCC(C)CC4)CC1 (stereo unspecified) | inactive | –
CC(=O)Nc1cccc(NC(=O)c2sc3ncn(CC(=O)N4CCCCC4)c(=O)c3c2C)c1 | inactive | –
O=C(/C(=C/O)N=Nc1ccc(Cl)cc1)c1ccncc1 | inactive | –
c1ccc(Nc2cccc3c(Nc4ccccc4)cccc23)cc1 | inconclusive [activator, partial curve] | –
Nc1nc(SCC(=O)NCc2ccccc2)n[nH]1 | inconclusive [inhibitor, partial curve] | –
Cc1csc2ncc(C(=O)Nc3ccon3)c(=O)n12 | inconclusive [activator, full curve, poor fit] | –
Nc1nc2nc(-c3cccs3)cc(C(F)(F)F)n2n1 | inconclusive [activator, partial curve] | –
N#Cc1c(N)n(-c2ccc(C(=O)O)cc2)c2nc3ccccc3nc12 | inconclusive [activator, partial curve] | –
CSc1nc(NCc2ccccc2)c2c3c(sc2n1)CN(C)CC3 | inconclusive [activator, single point] | –
COCCNc1ccnc(-c2c(C)noc2C)n1 | inactive | –
O=c1c2ccccc2nc(-c2ccccc2)n1Cc1ccccc1 | inactive | –
Cc1cccc(C(=O)Nc2ccc(CC(=O)O)cc2)c1 | inconclusive [inhibitor, single point] | –
CCN1C=C(C(=O)OC)C(c2cccc(C)c2)C(C(=O)OC)=C1 | inconclusive [activator, partial curve] | –
CCOc1ccccc1-n1c(SCC(=O)N2CCCc3ccccc32)nnc1-c1cccnc1 | inactive | –
Cc1cc(=O)oc2cc(OCC#N)ccc12 | inconclusive [activator, partial curve] | –
c1ccc(Oc2nc(NC3CCCCC3)c3[nH]cnc3n2)cc1 | inactive | –
O=C(Nc1ccc2oc(-c3cccc(F)c3)nc2c1)c1ccccc1F | inconclusive [activator, single point] | –
COc1cc(C2C(C#N)=C(N)N(Nc3ccccc3)C3=C2C(=O)CC(C)(C)C3)ccc1OCc1cccc(F)c1 (stereo unspecified) | inconclusive [activator, partial curve] | –
Nc1c(C(=O)NCc2ccc(F)cc2)c2nc3ccccc3nc2n1CCCN1CCOCC1 | inconclusive [activator, single point] | –
CCCCn1c(=O)nc2n(-c3ccccc3C)c3ccccc3cc-2c1=O | inconclusive [activator, single point] | –
C=C1CCN(C(C(=O)O)C(C)C)S(=O)(=O)c2ccccc21 (stereo unspecified) | inactive | –
COc1cccc2c(SCC(=O)N/N=C/c3ccc(O)c(O)c3)cc(C)nc12 | inactive | –
Cc1nc2cc(NC(=O)N3CCCCC3)ccc2n1C | inconclusive [inhibitor, single point] | –

SMILES | Potency | activity change, negative = inhibition
COc1cc(C)c(C)cc1S(=O)(=O)N1CCN(Cc2ccc3c(c2)OCO3)CC1 | inconclusive [activator, full curve, poor fit] | –
c1ccc2c(c1)NC1(CCCCCC1)n1c-2nc2ccccc21 | inconclusive [activator, single point] | –
CCc1cc2c(nc1CC)CCN(CC/C(C)=N/O[C@@H](C)c1cn([C@@H]3COC[C@@H]3O)nn1)C2 | – | inactive: -13.1% [at 17.5 µM]
O=C(CCSCc1cccc(Cl)c1)NCCc1ccccc1 | inactive | –
Cc1ccc(-c2cnc(SCC(=O)N3CCCc4ccccc43)n2C)cc1 | inactive | –
Cc1cccc2nc(-c3ccco3)c(Nc3ccccc3)n12 | inactive | –
N#Cc1ccc2c(c1)nc1ccccn12 | inconclusive [activator, partial curve] | –
CCc1c2c(nc3ccc(OC)cc13)-c1nc3ccccc3c(=O)n1C2 | inconclusive [activator, partial curve] | –
Fc1ccccc1N1CCN(C2CCN(Cc3c[nH]c4ccccc34)CC2)CC1 | inconclusive [activator, full curve, poor fit] | –
CN1C=CC=C/C1=C1\SC(=S)N(C2CCCCC2)C1=O | inconclusive [activator, single point] | –
Cc1csc2nc3cc(C(N)=O)ccc3c(=O)n12 | inconclusive [activator, partial curve] | –
COc1ccc(C2CC(c3ccccc3)=NN2c2ccc(S(N)(=O)=O)cc2)cc1 (stereo unspecified) | inconclusive [activator, partial curve] | –
N#CCCn1c(=O)c(-c2ccc(F)cc2)nc2cnc(N3CCOCC3)nc21 | inconclusive [activator, single point] | –
O=C(Nc1cccnc1)c1ccc(Oc2ccccc2)cc1 | inactive | –
CN1CCN(c2ncc3nc(-c4ccccc4)c(=O)n(C4CC4)c3n2)CC1 | inconclusive [activator, partial curve] | –
COC(=O)c1sccc1NC(=S)N1CCCCC1 | inconclusive [activator, full curve] | –
CC(=O)c1c(C)[nH]c(C(=O)N2CCN(c3ncccn3)CC2)c1C | inactive | –
O=S(=O)(c1ccc(OCC(O)CN2CCCCC2)cc1)N1CCOCC1 (stereo unspecified) | inactive | –
O=C(Cc1ccc(Cl)cc1)NNS(=O)(=O)c1ccc([N+](=O)[O-])cc1 | inconclusive [inhibitor, single point] | –
O=C(CSC1=NC(=O)C(c2ccccc2)C(=O)N1)Nc1ccccc1[N+](=O)[O-] (stereo unspecified) | inactive | –
O=C(NCc1ccco1)c1cc(-c2cccs2)nc2ccccc12 | inconclusive [activator, partial curve] | –
CC(C)(C)c1ccc(C(=O)Nc2ccccc2Cl)cc1 | inconclusive [inhibitor, partial curve] | –
CC1(C)CC(Nc2ccc(Nc3ccccc3)cc2)CC(C)(C)N1 | inactive | –
